Results on 5 compounds are retold here after patent US7416885B2, “Proliferated cell lines and uses thereof” (University of South Florida, priority 2002, dated 2008).

Read-outs that look alike come from different tables or passages of the source.

The experiment has as its system murine neural cell lines (CNH, CTb).
Setting [1] is: glutamatergic and cholinergic stimuli.

`C=C(C)[C@H]1CN[C@H](C(=O)O)[C@H]1CC(=O)O` [kainite]: the “intracellular Ca2+ response” value is reported as “increase in intracellular Ca^2+”.
Turning to `CN[C@H](CC(=O)O)C(=O)O` [NMDA], the “intracellular Ca2+ response” value is “increase in intracellular Ca^2+”.
Regarding `Cc1o[nH]c(=O)c1CC(N)C(=O)O` (centres unmarked) [AMPA], the “intracellular Ca2+ response” value is recorded as “increase in intracellular Ca^2+”.
Turning to `N[C@@H](CCC(=O)O)C(=O)O` [glutamate], the “intracellular Ca2+ response” value under setting [1] is listed as “increase in intracellular Ca^2+”.
On the same count and under the same terms, the result for `CN1CCCC1c1cccnc1` (centres unmarked) [nicotine] reads “increase in intracellular Ca^2+”.
